For series [1], the system named is laboratory strain of HIV-1. The series can be described thus: Antiviral activity against HIV (AV), p24 in infected activated primary T cells. It counts as cell-based. The conditions noted are these: Human immunodeficiency virus 1, T-cell, read-out: AV50 (Inhibitory concentration 50% for antiviral activity). The procedure:
Activated primary T cells are infected with a laboratory strain of HIV-1, then cultured and exposed to different concentrations of the test compounds. HIV replication is analysed by measuring the viral protein p24 and expressed as percentage of untreated control. Inhibition of viral replication (AV) is then calculated (AV=100 minus the % p24 compared to control, AV of control=0%). Inhibitory concentration 50% for antiviral activity (AV50) is calculated.
(§1) In Tables 2, 3 and 4, ND means Not Determined.

A further series relates to Primary T cells. The series can be described thus: Cytotoxicity, percentage of viable cells by flow cytometry. It is filed as cell-based. The procedure:
Primary T cells are cultured and treated with different concentrations of the test compound. Viability is analysed by measuring through flow cytometry based techniques the percentage of viable cells, compared to untreated control=100%). Toxic dose 50% (TD50) is calculated.
as §1

pIC50: −log10 of the molar value.

On to `CC[C@H](CO)Nc1nc(NCc2ccccc2)c2ncn(C(C)C)c2n1` [Roscovitine, reference compound], for which, in series [1], the pIC50 is 5.05.
Consider `COc1cc(F)c(Nc2cc(-c3ccccc3OC)ncn2)cc1C(N)=O` [Example 143, 4-Fluoro-2-methoxy-5-[6-(2-methoxy-phenyl)-pyrimidin-4-ylamino]-benzamide], for which, in the series on Primary T cells, the “TD50 (Toxic dose 50%)” value was determined as 15 µM.
On to `CCOc1ccc(Nc2cc(-c3ccc(F)cc3OC)ncn2)cc1O` [Example 114, 2-Ethoxy-5-[6-(4-fluoro-2-methoxy-phenyl)-pyrimidin-4-ylamino]-phenol], for which the “TD50 (Toxic dose 50%)” value in the series with Primary T cells is 10 µM.
Still for that read-out and setting: under `CCOc1ccccc1-c1cc(Nc2cc(F)c(OC)c(C(N)=O)c2)ncn1` [Example 141, 5-[6-(2-Ethoxy-phenyl)-pyrimidin-4-ylamino]-3-fluoro-2-methoxy-benzamide] stands above 20 µM; under `CCOC(=O)c1cc(Nc2cc(-c3ccccc3OC)ncn2)ccc1Cl` [Example 14, Ethyl 2-chloro-5-(6-(2-methoxyphenyl)pyrimidin-4-ylamino)benzoate], above 0.5 µM.

The values are drawn from US10294218B2 (VIROSTATICS SRL, priority 2012, dated 2019).
